From paper PMC4336329 (PLoS ONE, 2015)
Hit rate of the full screen: of about 310,000 compounds, about 2,200 (0.71%) showed an effect of 50% or more. Effects have a minus sign here. The list shows a part of the results.

Molecular target: human ether-à-go-go-related gene (hERG) potassium channel (human, UniProt Q12809)
Assay: primary screen, population patch clamp on CHO cells stably expressing hERG

human ether-à-go-go-related gene (hERG) potassium channel, sequence (Q12809 whole entry, looked up): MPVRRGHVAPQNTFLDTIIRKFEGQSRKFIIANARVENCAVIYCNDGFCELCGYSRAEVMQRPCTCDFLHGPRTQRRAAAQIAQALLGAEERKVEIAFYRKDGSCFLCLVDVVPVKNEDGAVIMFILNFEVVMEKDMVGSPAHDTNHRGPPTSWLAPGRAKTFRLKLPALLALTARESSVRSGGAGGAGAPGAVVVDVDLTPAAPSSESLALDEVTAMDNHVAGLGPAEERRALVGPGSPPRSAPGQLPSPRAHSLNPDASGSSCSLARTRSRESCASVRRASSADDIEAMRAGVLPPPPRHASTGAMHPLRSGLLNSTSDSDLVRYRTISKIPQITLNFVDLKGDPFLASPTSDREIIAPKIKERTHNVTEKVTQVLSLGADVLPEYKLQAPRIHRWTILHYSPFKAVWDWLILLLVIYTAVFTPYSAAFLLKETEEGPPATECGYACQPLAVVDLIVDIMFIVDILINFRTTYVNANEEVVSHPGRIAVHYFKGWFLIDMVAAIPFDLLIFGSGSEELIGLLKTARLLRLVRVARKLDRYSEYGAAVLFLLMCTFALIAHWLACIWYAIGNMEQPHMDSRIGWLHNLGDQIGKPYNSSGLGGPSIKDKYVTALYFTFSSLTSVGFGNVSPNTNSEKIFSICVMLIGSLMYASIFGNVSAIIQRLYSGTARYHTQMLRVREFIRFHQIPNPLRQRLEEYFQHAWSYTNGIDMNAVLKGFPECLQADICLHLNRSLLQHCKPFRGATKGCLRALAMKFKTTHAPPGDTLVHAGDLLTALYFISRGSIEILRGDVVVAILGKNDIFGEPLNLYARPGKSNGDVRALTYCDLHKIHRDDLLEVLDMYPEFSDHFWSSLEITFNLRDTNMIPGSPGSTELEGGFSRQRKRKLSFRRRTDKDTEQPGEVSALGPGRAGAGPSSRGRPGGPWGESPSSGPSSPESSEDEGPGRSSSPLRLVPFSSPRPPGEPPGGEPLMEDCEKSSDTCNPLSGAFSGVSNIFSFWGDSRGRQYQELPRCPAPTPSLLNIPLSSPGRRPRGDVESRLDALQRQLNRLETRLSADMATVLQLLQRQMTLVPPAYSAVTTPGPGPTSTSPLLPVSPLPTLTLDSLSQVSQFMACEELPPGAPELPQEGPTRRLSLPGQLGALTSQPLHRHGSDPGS

SMILES | hERG current change (%, negative = inhibition) at 1uM [%]
Cc1ccc(NC(=O)c2onc(C)c2Cl)cc1 | 4.97
CN1CCN(S(=O)(=O)c2ccc(NC(=S)NC(=O)C3CCC3)cc2)CC1 | 7.31
CCNC(=O)CC1C(=O)N(c2ccc(C)cc2)C(=O)N1CCc1sccc1C (centres unmarked) | -0.569
CCCCNC(=O)c1cc([N+](=O)[O-])[nH]n1 | 19.9
COc1cccc(-c2nnc(SCc3ccccn3)n2C)c1 | 0.907
CN(C)S(=O)(=O)c1cc(C(=O)O)c(NC2CCCCC2)cc1Cl | 7.3
N#CC1=C(SCC(=O)Nc2nccs2)NC(=O)CC1c1ccccc1 (centres unmarked) | -7.41
CN1C(=O)/C(=C\c2ccc(-c3ccccc3)o2)SC1=S | 12.6
Nc1nc(NCc2ccco2)nc(Nc2ccccc2)c1[N+](=O)[O-] | 2.48
CC(C)c1ccc(CSc2ccc(S(=O)(=O)N3CCOCC3)cn2)cc1 | 8.02
COc1ccc(-c2csc(NC(=O)c3cccc(S(=O)(=O)N4CCN(C)CC4)c3)n2)cc1 | 6.25
Cc1ccsc1/C=N/N=C/c1sccc1C | 12.8
O=C(O)C(Cc1c[nH]c2ccccc12)NS(=O)(=O)c1ccccc1 (centres unmarked) | 1.94
O=C(O)CCCC(=O)Nc1c(F)c(F)c(F)c(F)c1F | 9.46
CCN1C(=O)c2cccc3c(S(=O)(=O)Nc4nc(C)cs4)ccc1c23 | 14.3
CC1(C)C(C(=O)O)N2C(=O)C(NC(=O)Cc3ccccc3)C2S1=O.O (centres unmarked) | 9.77
CC(=O)Nc1ccc(C(=O)/C=C/c2ccc[nH]2)cc1 | 13
CC(C)C(C)(C#N)NC(=O)CSc1nnc(C(F)(F)F)n1C (centres unmarked) | 8.97
Cc1ccc(C)c(N2CCN(C(=O)Cn3cccc3)CC2)c1 | -11.4
Cc1nn(C)c(C)c1Nc1ccc(N2C(=O)C3CC=CCC3C2=O)cc1[N+](=O)[O-] (centres unmarked) | 3.98

SMILES | hERG current change (%, negative = inhibition) at 1uM [%]
Cc1cc(N(C)C)nc(Nc2ccccc2)n1 | -27.8
O=C(NN=C1CCCCCC1)c1ccc2c(c1)OCO2 | 16.9
C=CCn1nnnc1-c1cccc(Cl)c1 | 13.2
CCNc1nc(NC(C)C)nc(N(C)C#N)n1 | 11
CC(=O)c1ccccc1NC(=O)C1CC(=O)N(c2ccc3c(c2)OCCO3)C1 (centres unmarked) | 12.3
Cn1c(=O)c2c(nc(NC3CCCCC3)n2CC(=O)C23CC4CC(CC(C4)C2)C3)n(C)c1=O | 15.4
Cc1[nH]n(-c2ccccc2)c(=O)c1C=Nc1cccc(F)c1 | 20.6
CC(C)C(C(=O)Nc1ccc2c(c1)OCCOCCOCCOCCO2)N1C(=O)c2ccccc2C1=O (centres unmarked) | -13.2
CN(C)CC(O)COC(c1ccccc1)c1ccccc1 (centres unmarked) | -9.84
COc1ccc(CNC(=O)CN(C)Cc2ccccc2F)cc1OC | 3.05
CN1C(=O)/C(=C/c2cc(N=Nc3ccccc3)ccc2O)SC1=S | 2.94
CCOC(=O)C1C(=O)C=C(/C=C/c2ccc(N(C)C)cc2)CC1c1ccccc1 (centres unmarked) | 3.69
O=C(NCC1CCC(C(=O)O)CC1)OCc1ccccc1 (centres unmarked) | -4.81
COc1ccc(CCNC(=O)C(=O)NCCC2CCCCN2S(=O)(=O)c2ccccc2)cc1 (centres unmarked) | 9.02
CC(C)C(=O)NCCc1nc(-c2ccccc2Cl)no1 | 15.5
Cc1ccc(-c2cc(C(F)(F)F)nc(SCC(=O)c3cccc([N+](=O)[O-])c3)n2)cc1 | 15.7
c1ccc(-c2nc3ccccc3[nH]2)cc1 | 13.2
CC(=O)c1ccc(NC(=O)CSc2nccn2C)cc1 | 6.61
O=C(O)CN1c2cccc3cccc(c23)S1(=O)=O | 21.1
Cc1ccc(NC(=O)CSc2nc3nc(C)cc(C)c3c(=O)[nH]2)cc1 | 12

SMILES | hERG current change (%, negative = inhibition) at 1uM [%]
CC1CCN(C(=O)c2ccccc2NC(=O)c2cccc(S(=O)(=O)N(C)C)c2)CC1 | 5.45
CCCCOc1ccc(C(=O)Nn2c(-c3cccs3)nc3ccccc3c2=O)cc1 | -7.32
CC(=O)Nc1ccc(S(=O)(=O)N2CCSCC2)cc1 | 12.7
Br.Cc1ccc(C2=CSC3=NCCN23)cc1 | 11.3
Cc1cnn(Cc2cccnc2)c1N | 13.6
Cc1ccc(C)c(S(=O)(=O)N2CCN(C(=O)CN3C(=O)NC(C)(C)C3=O)CC2)c1 | 12
Cc1cccc(C(=O)NNC(=O)c2ccc(S(=O)(=O)N3CCOCC3)cc2)c1 | 14.4
CCOc1ccc(Nc2nc(N3CCOCC3)nc(N3CCOCC3)n2)cc1 | 9.02
CC(=O)c1ccccc1NS(=O)(=O)c1cccc2nsnc12 | 11.5
CC1CCC(=O)N(CCC#N)CC1 (centres unmarked) | -3.3
COc1ccc(N2CCN(C(=O)CCNS(=O)(=O)c3cccs3)CC2)cc1 | 0.22
CCOC(=O)/C(C#N)=C\C1=C(N2CCOCC2)CC(C)(C)OC1 | 6.93
Cc1c(CN(C)C(=O)/C=C/c2ccc([N+](=O)[O-])cc2)cnn1C | -65.5
CCOc1ccc(S(=O)(=O)NCc2csc(C)n2)cc1 | 3.95
O=C(Oc1nsnc1N1CCOCC1)N1CCCC1 | 9.57
O=C(NCCOC(=O)c1ccc(S(=O)(=O)N2CCOCC2)cc1)c1cccnc1 | -2.36
CN1CCN(NC(=O)c2cn(-c3ccccc3)nc2-c2ccc(OC(F)F)cc2)CC1.Cl | 5.29
Cc1ccc(S(=O)(=O)N2CC(O)C[C@H]2C(=O)OCC(=O)Nc2ccc(N3CCCCC3)cc2)cc1C (some centres unmarked) | 5.47
c1cncc(-c2nn3c(Cn4nnc5ccccc54)nnc3s2)c1 | -8.94
